In paper PMC7819943, “Rice protein-binding microarrays: a tool to detect cis-acting elements near promoter regions in rice”:
The list shows a part of the results.

Biological target: T1, OsWOX13 (Oryza sativa, UniProt Q5QMM3 1-267)
T1 sequence: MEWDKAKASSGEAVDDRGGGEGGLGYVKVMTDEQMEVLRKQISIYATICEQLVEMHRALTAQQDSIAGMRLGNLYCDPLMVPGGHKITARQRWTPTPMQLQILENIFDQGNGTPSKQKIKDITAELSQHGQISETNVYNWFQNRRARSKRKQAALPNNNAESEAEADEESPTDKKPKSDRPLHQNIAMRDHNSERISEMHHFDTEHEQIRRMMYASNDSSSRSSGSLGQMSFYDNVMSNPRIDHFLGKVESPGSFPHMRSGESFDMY
Experiment: protein-binding microarray (RPBM); PBS, 2% BSA, 51.3 ng/ul salmon testes DNA, 50 uM zinc acetate, 200 nM TF, 25 C, 1 h; high values mean tight binding
Conditions: protein: recombinant; tags: N-terminal polyhistidine and DsRed monomer fusion (pET32a); label: CyDye5-dUTP incorporated in the synthesized complementary strand; 3' TTTTT single-stranded linker to array surface; dsDNA, one strand shown
Outline: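 An Axon 4000B scanner gave the binding signal as per-feature fluorescence intensity in arbitrary units. This followed washing of a custom Agilent array that had been incubated for 1 h at 25 °C with 200 nM protein in PBS, 2% BSA, salmon testes DNA and 50 µM zinc acetate. The proteins were transcription factors fused at the N-terminus to polyhistidine and DsRed, expressed in E. coli BL21-CodonPlus and purified on Ni–NTA.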

With “CTATTTTAAAGATTGATCTGATTTTAGAAATAGCAACGTTCGGAGTCACCTAGTGCAG” as the sequence, how does the binding signal read?
Its binding signal is 9470 fluorescence intensity (a.u.).

How did the binding signal turn out when “AATAATTGAAATACTAAAGTGGGAGAGAGAAATAATCCTTCGGAGTCACCTAGTGCAG” was run?
The binding signal was 27600 fluorescence intensity (a.u.).

For “ACTATAGTCAAAATTTAAATTTTCAGAATGTAATTTTGGACGGAGTCACCTAGTGCAG”, which binding signal is on record?
The binding signal was 3820 fluorescence intensity (a.u.).

Which binding signal does the source give for “ATGTAATTTTCCGTGTCTATACTTATTTGGTCCAAGAAATCGGAGTCACCTAGTGCAG” here?
The binding signal was 7200 fluorescence intensity (a.u.).

Which binding signal does the source give for “ACACTAAATTAATGTATGCAATGTCCATTGGTAAATAACTCGGAGTCACCTAGTGCAG” here?
The binding signal was 14900 fluorescence intensity (a.u.).

Which binding signal does the source give for “TTTATAAATTATTTAATAAATTATTATTAGAATTTATATTCGGAGTCACCTAGTGCAG” here?
The binding signal was 10100 fluorescence intensity (a.u.).

How did the binding signal turn out when “CCATAATTTTGCAAAGACATCAAACCAAATAAAACCAATGCGGAGTCACCTAGTGCAG” was run?
The binding signal was 6680 fluorescence intensity (a.u.).

With “TGTTGACAGTTACAGAGACTGGAGTAAGCTGGACGGCATACGGAGTCACCTAGTGCAG” as the sequence, how does the binding signal read?
Its binding signal is 13800 fluorescence intensity (a.u.).

With “TCTGTTTGATGGGCTACTATAATTAGTAGCAGAAAATGCACGGAGTCACCTAGTGCAG” as the sequence, how does the binding signal read?
Its binding signal is 7260 fluorescence intensity (a.u.).

Which binding signal does the source give for “AGCAAATTTAAATTTGATAGTATAGAATTGGTTCTGAGGTCGGAGTCACCTAGTGCAG” here?
The binding signal was 52400 fluorescence intensity (a.u.).

How did the binding signal turn out when “CTCTAATTAATCCTAAAGCAGTGATATGCTTGATGAAGCACGGAGTCACCTAGTGCAG” was run?
The binding signal was 26700 fluorescence intensity (a.u.).

For “ATGTTAATATAAATGCTAAATCAATTATGTGAGTGAATTACGGAGTCACCTAGTGCAG”, which binding signal is on record?
The binding signal was 6700 fluorescence intensity (a.u.).

With “AAGCTTGATGGAAACCTTGGTCATCTGGAGAGTTTTGGGCCGGAGTCACCTAGTGCAG” as the sequence, how does the binding signal read?
Its binding signal is 5580 fluorescence intensity (a.u.).

Which binding signal does the source give for “AATTTAGAATTTTAATCCTGTAATTGAAAATTTGGTAAAACGGAGTCACCTAGTGCAG” here?
Its binding signal is 4810 fluorescence intensity (a.u.).

For “TATTTGTCACATCAATCACTTCTAATTCAAAATTTTCTTTCGGAGTCACCTAGTGCAG”, which binding signal is on record?
The binding signal was 14300 fluorescence intensity (a.u.).

For “GTGTGATTTGCTAATTGGGTTTGTTATGAAGCTGGTTATCCGGAGTCACCTAGTGCAG”, which binding signal is on record?
The binding signal was 54000 fluorescence intensity (a.u.).

With “TAAAATTAATAGAGATCGTGGGAACAAATCCTTTTACATACGGAGTCACCTAGTGCAG” as the sequence, how does the binding signal read?
Its binding signal is 4200 fluorescence intensity (a.u.).

Which binding signal does the source give for “ATTACCAAATTTGGTCGTTAACACATACAAGTTACTCCCTCGGAGTCACCTAGTGCAG” here?
Its binding signal is 6930 fluorescence intensity (a.u.).

How did the binding signal turn out when “AAAATACTTAATTTACTATGATAAGCACGTCAATAATCAGCGGAGTCACCTAGTGCAG” was run?
The binding signal was 8700 fluorescence intensity (a.u.).

How did the binding signal turn out when “ATGTAGATTAGAACTTTTGACTTTATTGCATCAACTAGTGCGGAGTCACCTAGTGCAG” was run?
Its binding signal is 15800 fluorescence intensity (a.u.).

Which binding signal does the source give for “CGGCTGATAATTAAGCTAACAACTTACTGTGACTGACTTGCGGAGTCACCTAGTGCAG” here?
The binding signal was 13900 fluorescence intensity (a.u.).

How did the binding signal turn out when “ACAGATTAATTAGGCTTAATATATTCATATCGCAGTTTACCGGAGTCACCTAGTGCAG” was run?
Its binding signal is 50500 fluorescence intensity (a.u.).

Which binding signal does the source give for “TGAAATTGCATATTTGTGGAGTGATATATCACATGTTAATCGGAGTCACCTAGTGCAG” here?
The binding signal was 4410 fluorescence intensity (a.u.).

For “ACAAAACTAATAACAAAACAAATTACAGATTCCGTCAGAACGGAGTCACCTAGTGCAG”, which binding signal is on record?
The binding signal was 3400 fluorescence intensity (a.u.).

How did the binding signal turn out when “CACAATCATAATCATTCTTTTCATGTATTTTCTCAATCAACGGAGTCACCTAGTGCAG” was run?
The binding signal was 5880 fluorescence intensity (a.u.).

With “TTAAACATTTCTGACAATAACTGGATCAATTGTATAGGTACGGAGTCACCTAGTGCAG” as the sequence, how does the binding signal read?
The binding signal was 3840 fluorescence intensity (a.u.).

How did the binding signal turn out when “TGATTAATTAAGTATTAGTTTATCTTAAAATGATTAATATCGGAGTCACCTAGTGCAG” was run?
Its binding signal is 3500 fluorescence intensity (a.u.).

With “CTTAAATTGATTTATTTTGGAACGGAGAGAGTAATATGCACGGAGTCACCTAGTGCAG” as the sequence, how does the binding signal read?
The binding signal was 53500 fluorescence intensity (a.u.).

How did the binding signal turn out when “TTCCAAACACAGCCTAATTAAGCTAGCTGTGTCATCCGACCGGAGTCACCTAGTGCAG” was run?
The binding signal was 3370 fluorescence intensity (a.u.).

With “TCCAATAGATATAACAATAAATTTTCATGTTATAACGGGACGGAGTCACCTAGTGCAG” as the sequence, how does the binding signal read?
The binding signal was 4920 fluorescence intensity (a.u.).

Which binding signal does the source give for “GGAGAAATTTAAATTGGAAGTGGTTAATGTGACATGTAGTCGGAGTCACCTAGTGCAG” here?
The binding signal was 34900 fluorescence intensity (a.u.).

With “GGCATTGACGTGACACTCACGTGACAATTATATCTCGGAACGGAGTCACCTAGTGCAG” as the sequence, how does the binding signal read?
The binding signal was 5080 fluorescence intensity (a.u.).

How did the binding signal turn out when “AAATCATTGTCGATCAATCAAATCTACCTCGTTCTGGAGACGGAGTCACCTAGTGCAG” was run?
Its binding signal is 14500 fluorescence intensity (a.u.).

How did the binding signal turn out when “AATTAATTAGGCTCAATAGATTCGTCTCGCGAATTAGTCTCGGAGTCACCTAGTGCAG” was run?
The binding signal was 33500 fluorescence intensity (a.u.).

Which binding signal does the source give for “TTTGATAGGTGCAACAACTCTTTGTTAGTCCATTTGGCTACGGAGTCACCTAGTGCAG” here?
Its binding signal is 7540 fluorescence intensity (a.u.).

With “AGCGATGGATAATTTAGTGATCGGTTTCCATGGCAGCGTTCGGAGTCACCTAGTGCAG” as the sequence, how does the binding signal read?
Its binding signal is 4950 fluorescence intensity (a.u.).

How did the binding signal turn out when “TGTTGGGTTGGGTTGGGTTGGGTTGGGTCCGTCCGATGAACGGAGTCACCTAGTGCAG” was run?
The binding signal was 9220 fluorescence intensity (a.u.).

For “TACCAACCAATTAGTGCTAATAGGTAGCATTTTCTGTAGTCGGAGTCACCTAGTGCAG”, which binding signal is on record?
Its binding signal is 16100 fluorescence intensity (a.u.).

With “TATTGACTGCAACAATAATCATTATTACATGAAACATTATCGGAGTCACCTAGTGCAG” as the sequence, how does the binding signal read?
The binding signal was 15800 fluorescence intensity (a.u.).

How did the binding signal turn out when “TTGAATTGTTAGATTTGTTTCAAGATTCTTACCGGCAAGGCGGAGTCACCTAGTGCAG” was run?
Its binding signal is 7720 fluorescence intensity (a.u.).

How did the binding signal turn out when “CATACCAAATCAATTACCAATACCTAGTCATATGCTTCATCGGAGTCACCTAGTGCAG” was run?
The binding signal was 10900 fluorescence intensity (a.u.).

With “TTTTATGATTAATATTTTATTGTTATTAGATGATAAAACACGGAGTCACCTAGTGCAG” as the sequence, how does the binding signal read?
The binding signal was 5150 fluorescence intensity (a.u.).
